Some of the results follow.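 Rule for the calls: active = permutation test q below 0.05 after Benjamini-Hochberg correction; inactive = q of 0.05 or more.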
What was measured:
[1] = test system: A549; experiment: mean average precision of replicate retrieval against DMSO controls (Cell Painting phenotypic activity) (fraction (0-1)); higher = stronger, more reproducible morphological phenotype distinct from DMSO; extreme values may be limits of the assay; settings: 5 µM
[2] = test system: U2OS; experiment: as above; settings: 5 µM
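Note: cosine similarity of well-level aggregated Cell Painting profiles ranks each compound's replicate wells against DMSO wells, four replicate plates, significance from 100,000 rank shuffles.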

SMILES | mean average precision ([1]; 24 h) | mean average precision ([1]; 48 h) | mean average precision ([2]; 24 h) | mean average precision ([2]; 48 h)
CN(c1ccccc1CNc1nc(Nc2ccc3c(c2)CC(=O)N3)ncc1C(F)(F)F)S(C)(=O)=O | active: 1 | active: 1 | active: 1 | active: 1
S=C(S)N1CCCC1 | active: 0.979 | active: 1 | active: 1 | active: 1
CC(C)[C@@H]1C(=O)N(S(C)(=O)=O)[C@@H]2CCN(C(=O)/C=C/CN3CCCCC3)[C@H]21 | active: 0.522 | active: 0.967 | active: 0.59 | active: 0.363
C=C(NC(=O)C(=C)NC(=O)c1csc(C2=NC3c4csc(n4)C4NC(=O)c5csc(n5)C(C(C)(O)C(C)O)NC(=O)C5CSC(=N5)C(=CC)NC(=O)C(C(C)O)NC(=O)c5csc(n5)C3(CC2)NC(=O)C(C)NC(=O)C(=C)NC(=O)C(C)NC(=O)C(C(C)CC)NC2C=Cc3c(C(C)O)cc(nc3C2O)C(=O)OC4C)n1)C(N)=O (stereo unspecified) | active: 0.979 | active: 1 | active: 1 | active: 1
CO[C@H]1C=CO[C@@]2(C)Oc3c(C)c(O)c4c(O)c(cc(O)c4c3C2=O)NC(=O)/C(C)=C\C=C/[C@H](C)[C@H](O)[C@@H](C)[C@@H](O)[C@@H](C)[C@H](OC(C)=O)[C@@H]1C | active: 0.398 | active: 0.448 | inactive: 0.24 | active: 0.489
CCCOc1ccc2nc(NC(=O)OC)[nH]c2c1 | active: 1 | active: 1 | active: 1 | active: 1
Nc1cc(C(F)(F)F)c(-c2cc(N3CCOCC3)nc(N3CCOCC3)n2)cn1 | active: 1 | active: 1 | active: 1 | active: 1
COc1cccc(-c2cc(F)ccc2[C@H]2Cc3nc(N)nc(C)c3C(=O)N2)n1 | active: 1 | active: 1 | active: 1 | active: 1
CCOC(=O)c1cc(C#N)c(N2CCC(C(=O)NS(=O)(=O)Cc3ccccc3)CC2)nc1C | active: 0.623 | active: 0.334 | active: 0.733 | active: 0.566
CCn1cc(-c2ccnc3[nH]c(-c4cccc(CN(C)C)c4)cc23)c(-c2ccc(NC(=O)N(C)C)cc2)n1 | active: 1 | active: 1 | active: 1 | active: 0.791
CN1CCc2nc(C(=O)N[C@H]3C[C@H](C(=O)N(C)C)CC[C@@H]3NC(=O)C(=O)Nc3ccc(Cl)cn3)sc2C1 | inactive: 0.12 | active: 0.582 | active: 0.336 | inactive: 0.166
Cc1noc(-c2ccc(CSCCC(=O)O)cc2)c1NC(=O)OC(C)c1ccccc1Cl (stereo unspecified) | active: 1 | active: 1 | active: 0.51 | active: 0.561
O=c1ccc2ccccc2o1 | active: 0.5 | active: 0.363 | inactive: 0.183 | inactive: 0.214
Cc1cc(C)cc(C(=O)N(C)[C@H](Cc2ccc(-c3ccccc3)cc2)C(=O)N[C@@H](Cc2c[nH]c3ccccc23)C(=O)O)c1 | inactive: 0.127 | inactive: 0.134 | inactive: 0.238 | inactive: 0.063
O=C(CSc1nc2c(c(=O)n1-c1ccccc1)SCC2)Nc1ccc(-c2ccccc2)cn1 | active: 0.789 | active: 1 | active: 0.529 | active: 0.702
NS(=O)(=O)c1cccc2c1c([N+](=O)[O-])cc1[nH]c(=O)c(=O)[nH]c12 | inactive: 0.173 | active: 0.579 | inactive: 0.0365 | inactive: 0.1
COc1cc(N2CCN(C)CC2)ccc1Nc1nccc(-c2cn(C)c3cnccc23)n1 | active: 1 | active: 1 | active: 1 | active: 1
O=C(O)c1ccc(-n2nc(-c3ccccc3O)nc2-c2ccccc2O)cc1 | active: 1 | active: 1 | active: 1 | active: 1
COc1c2occc2cc2ccc(=O)oc12 | active: 0.497 | active: 0.485 | inactive: 0.24 | inactive: 0.162
Cc1ccc(/C=C2\CNC/C(=C\c3ccc(C)cc3)C2=O)cc1 | active: 1 | active: 1 | active: 1 | active: 1
CC[C@H](C)[C@@H]1NC(=O)[C@H](Cc2ccc(O)cc2)NC(=O)[C@@H](N)CSSC[C@@H](C(=O)N2CCC[C@H]2C(=O)N[C@@H](CC(C)C)C(=O)NCC(N)=O)NC(=O)[C@H](CC(N)=O)NC(=O)[C@H](CCC(N)=O)NC1=O | inactive: 0.103 | inactive: 0.267 | inactive: 0.131 | inactive: 0.131
CNC(=O)[C@H](Cc1c[nH]c2ccccc12)NC(=O)[C@@H](CC(=O)NO)CC(C)C | inactive: 0.145 | active: 0.931 | active: 0.77 | active: 0.788
CN1CCN(c2nc(C3=C(c4c[nH]c5ccccc45)C(=O)NC3=O)c3ccccc3n2)CC1 | active: 1 | active: 1 | active: 1 | active: 1
CN1C/C=C/CCOc2cccc(c2)-c2ccnc(n2)Nc2cccc(c2)C1 | active: 1 | active: 1 | active: 1 | active: 1
Cn1ncc(Cl)c1-c1cc(C(=O)N[C@H](CN)Cc2cccc(F)c2)sc1Cl | active: 1 | active: 1 | active: 1 | active: 1

SMILES | mean average precision ([1]; 24 h) | mean average precision ([1]; 48 h) | mean average precision ([2]; 24 h) | mean average precision ([2]; 48 h)
CC(=O)Oc1cc2c(s1)CCN(C(C(=O)C1CC1)c1ccccc1F)C2 (stereo unspecified) | active: 0.645 | active: 0.51 | active: 0.861 | active: 0.547
OCCN1C[C@@H](O)[C@@H](O)C(O)C1CO (stereo partly specified) | inactive: 0.139 | active: 0.931 | inactive: 0.259 | active: 0.537
OCc1ccc(-c2nn(Cc3ccccc3)c3ccccc23)o1 | active: 0.307 | active: 0.7 | active: 1 | active: 0.791
Cc1cccc(-c2[nH]c(C(C)(C)C)nc2-c2ccc3c(c2)OCO3)n1 | active: 0.887 | active: 1 | active: 1 | active: 1
CCCCCCCC/C=C\CCCCCCCC(=O)N[C@@H](CO)Cc1ccc(O)cc1 | active: 0.837 | active: 0.608 | active: 0.689 | active: 0.668
CC(C)CC(=O)Nc1n[nH]c2c1CN(C(=O)C1CCN(C)CC1)C2(C)C | active: 0.828 | active: 1 | active: 1 | active: 0.998
CN(C)C(=O)C(CCN1CCC(O)(c2ccc(Cl)cc2)CC1)(c1ccccc1)c1ccccc1 | active: 1 | active: 1 | active: 1 | active: 0.752
CC(C)[C@H]1c2ccc(F)cc2CC[C@@]1(CCN(C)CCCc1nc2ccccc2[nH]1)OC(=O)C1CC1 | active: 1 | active: 1 | active: 1 | active: 1
Nc1nc(F)nc2c1ncn2[C@@H]1O[C@H](COP(=O)(O)O)[C@@H](O)[C@@H]1O | active: 1 | active: 1 | active: 1 | active: 1
N=C(N)c1ccc2cc(OC(=O)c3ccc(N=C(N)N)cc3)ccc2c1 | active: 0.684 | active: 1 | active: 0.553 | active: 0.649
OCCn1cc(-c2cnc3nnn(Cc4ccc5ncccc5c4)c3n2)cn1 | inactive: 0.264 | active: 0.738 | inactive: 0.0804 | inactive: 0.202
C=C(NC(=O)C(=C)NC(=O)c1csc(C2=N[C@@H]3c4csc(n4)[C@H]4NC(=O)c5csc(n5)[C@H]([C@](C)(O)[C@@H](C)O)NC(=O)[C@H]5CSC(=N5)/C(=C/C)NC(=O)[C@H]([C@@H](C)O)NC(=O)c5csc(n5)[C@]3(CC2)NC(=O)[C@H](C)NC(=O)C(=C)NC(=O)[C@H](C)NC(=O)[C@H]([C@@H](C)CC)N[C@@H]2C=Cc3c([C@H](C)O)cc(nc3[C@H]2O)C(=O)O[C@@H]4C)n1)C(N)=O | active: 1 | active: 1 | active: 1 | active: 1
Nc1cc(F)ccc1NC(=O)/C=C/c1cnn(C/C=C/c2ccccc2)c1 | active: 0.938 | active: 1 | active: 1 | active: 1
CS(=O)(=O)Nc1ccc(-c2coc3cc(OCc4cccc(C(=O)O)c4)ccc3c2=O)cc1 | inactive: 0.225 | active: 0.314 | inactive: 0.312 | inactive: 0.283
CCOC(=O)C1=C(COCCN)NC(C)=C(C(=O)OC)C1c1ccccc1Cl (stereo unspecified) | active: 0.622 | active: 1 | active: 1 | active: 0.573
C/C(=C\c1csc(C)n1)[C@@H]1C[C@@H]2O[C@]2(C)CCC[C@H](C)[C@H](O)[C@@H](C)C(=O)C(C)(C)[C@@H](O)CC(=O)N1 | active: 1 | active: 1 | active: 1 | active: 1
CCOC(=O)[C@H]1O[C@@H]1C(=O)N[C@@H](CC(C)C)C(=O)NCCC(C)C | active: 1 | active: 1 | active: 1 | active: 1
O=C(NCCCN1CCC2(CC1)OCc1ccccc12)[C@H]1CCCN1Cc1ccccc1 | active: 1 | active: 1 | active: 1 | active: 1
O=C(O)c1cccnc1Nc1cccc(C(F)(F)F)c1 | active: 0.437 | active: 0.67 | inactive: 0.263 | inactive: 0.0737
NC(N)=NC(=O)c1nc(Cl)c(N)nc1N | active: 0.979 | active: 1 | active: 0.428 | active: 0.431
COCC(=O)NC/C=C/c1ccc2ncnc(Nc3ccc(Oc4ccc(C)nc4)c(C)c3)c2c1 | active: 1 | active: 1 | active: 0.951 | active: 1
Cc1nn(C)c2nc(NNC(=O)Nc3cc(Cl)nc(Cl)c3)cc(C(C)C)c12 | active: 0.689 | active: 1 | active: 1 | active: 0.555
Cc1cccc(Oc2nc3c(C)cccn3c(=O)c2/C=C(\C#N)c2nc3ccccc3s2)c1 | active: 0.903 | active: 1 | active: 0.37 | active: 0.822
NC(=O)N1CCC(CC(=O)N2CCC([C@H]3c4ncc(Br)cc4CCc4cc(Cl)cc(Br)c43)CC2)CC1 | active: 1 | active: 1 | active: 0.948 | active: 1
